# From the supplement of paper PMC8512760
# The other results are listed elsewhere or left out. Most values come without repeats; read them as rough.
# Test system: HCC-1143
# Test: cell viability relative to vehicle (% of vehicle); basal-like triple-negative breast cancer lines; higher = less cytotoxic
# Conditions: 10 µM; 72 h
# 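Note: stably firefly luciferase-GFP labeled cells in 96-well plates, viability read as luciferase photon flux after d-luciferin addition, treated wells normalized to vehicle wells, single-dose high-throughput screen.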
row,Compound,cell viability
1,NC(=O)c1cnccn1 [Pyrazinamide],85.5
2,COC(=O)C1=C(C)NC(C)=C(C(=O)OCCN(C)Cc2ccccc2)C1c1cccc([N+](=O)[O-])c1.Cl (stereo unspecified) [Nicardipine HCl],129
3,COc1ccc(CN(CCN(C)C)c2ccccn2)cc1.O=C(O)/C=C\C(=O)O [Mepyramine maleate],87.9
4,CCN1CCCC1CNC(=O)c1cc(S(=O)(=O)CC)c(N)cc1OC (stereo unspecified) [Amisulpride],91.1
5,Cc1ccc(NC(=O)c2ccc(CN3CCN(C)CC3)cc2)cc1Nc1nccc(-c2cccnc2)n1 [Imatinib (STI571)],83.3
6,CC1(C)SC2C(NC(=O)C(N)c3ccccc3)C(=O)N2C1C(=O)O.O.O.O (stereo unspecified) [Ampicillin Trihydrate],110
7,Nc1ccn(CC(CO)OCP(=O)(O)O)c(=O)n1.O.O (stereo unspecified) [Cidofovir dihydrate],91.8
8,Cc1c(OCC(F)(F)F)ccnc1CS(=O)c1nc2ccccc2[nH]1 (stereo unspecified) [Dexlansoprazole],162
9,CNC(=O)CN(CCN(CCN(CC(=O)[O-])CC(=O)NC)CC(=O)[O-])CC(=O)[O-].O.[Gd+3] [Gadodiamide],64.6
10,CN(C)CCc1c[nH]c2ccc(CS(=O)(=O)N3CCCC3)cc12.O=C(O)CC(O)C(=O)O [Almotriptan Malate],71
11,Cl.NNc1nncc2ccccc12 [Hydralazine HCl],83.8
12,O=C(O)c1ccccc1 [Benzoic Acid],97.7
13,CC(C)(OCc1nn(Cc2ccccc2)c2ccccc12)C(=O)O [Bindarit],84.7
14,Clc1ccc(COC(Cn2ccnc2)c2ccc(Cl)cc2Cl)c(Cl)c1.O=[N+]([O-])O (stereo unspecified) [Miconazole Nitrate],73.9
15,Nc1nc2ccc(OC(F)(F)F)cc2s1 [Riluzole],133
16,CN1C(C(=O)Nc2ccccn2)=C(O)c2sccc2S1(=O)=O [Tenoxicam],81.7
17,COC(=O)CCc1ccc(OCC(O)CNC(C)C)cc1.Cl (stereo unspecified) [Esmolol HCl],77.4
18,Cc1c(OCC(F)(F)F)ccnc1CS(=O)c1nc2ccccc2[n-]1.[Na+] (stereo unspecified) [Lansoprazole sodium],188

row,Compound,cell viability
1,CC12C=CC(=O)C=C1CCC1C2C(O)CC2(C)C1CCC2(O)C(=O)CO (stereo unspecified) [Prednisolone],127
2,CS(=O)(=O)O.CS(=O)(=O)O.N=C(N)c1ccc2cc(OC(=O)c3ccc(N=C(N)N)cc3)ccc2c1 [Nafamostat Mesylate(FUT-175)],90.8
3,Cl.c1ccc2c(c1)CCCC2C1=NCCN1 (stereo unspecified) [Tetrahydrozoline HCl],74.9
4,Cc1cn(C2CC(O)C(CO)O2)c(=O)[nH]c1=O (stereo unspecified) [Telbivudine],81.4
5,O=c1c(-c2ccc(O)cc2)coc2cc(O)cc(O)c12 [Genistein],141
6,OC(Cn1cncn1)(Cn1cncn1)c1ccc(F)cc1F [Fluconazole hydrate],104
7,CCCCc1oc2ccc(NS(C)(=O)=O)cc2c1C(=O)c1ccc(OCCCN(CCCC)CCCC)cc1 [Dronedarone],90.3
8,CCCCCOc1ccc(-c2cc(-c3ccc(C(=O)NC4CC(O)C(O)NC(=O)C5C(O)C(C)CN5C(=O)C(C(O)CC(N)=O)NC(=O)C(C(O)C(O)c5ccc(O)c(OS(=O)(=O)[O-])c5)NC(=O)C5CC(O)CN5C(=O)C(C(C)O)NC4=O)cc3)no2)cc1.[Na+] (stereo unspecified) [Micafungin sodium],86.6
9,OC(Cn1cncn1)(Cn1cncn1)c1ccc(F)cc1F [Fluconazole],82
10,CC(C)NCC(O)COc1ccc(CCOCC2CC2)cc1.Cl (stereo unspecified) [Levobetaxolol HCl],74.2
11,CS(=O)(=O)O.Cc1ccc(NC(=O)c2ccc(CN3CCN(C)CC3)cc2)cc1Nc1nccc(-c2cccnc2)n1 [Imatinib Mesylate (STI571)],99.4
12,CCC(=O)OCC(=O)C1(OC(=O)CC)C(C)CC2C3CCC4=CC(=O)C=CC4(C)C3(Cl)C(O)CC21C (stereo unspecified) [Beclomethasone dipropionate],104
13,CCOc1ccc(NC(C)=O)cc1 [Phenacetin],112
14,CC(=O)OCC(=O)C1CCC2C3CCC4=CC(=O)CCC4(C)C3CCC12C (stereo unspecified) [Deoxycorticosterone acetate],115
15,OCC1OC(O)C(O)C(O)C1O [Dextrose (D-glucose)],123
16,CC(=O)Oc1ccccc1C(=O)Nc1ncc([N+](=O)[O-])s1 [Nitazoxanide],187
17,CCCCOc1ccc(OCCCN2CCOCC2)cc1.Cl [Pramoxine HCl],122
18,Nc1ccn(C2OC(CO)C(O)C2(F)F)c(=O)n1 (stereo unspecified) [Gemcitabine],73.2
